Assay results published in paper PMC12040169 (PLOS Biology, 2025).
This is one part of the list.

Each compound was assayed on T1, C. trachomatis L2/434/Bu expressing GFP (CTL2-GFP). Settings: total inclusion area; 28.5 h, 10 µM; inhibitor.
T1 construct: L2/434/Bu GFP intracellular growth in HeLa cells
Parameters: species or system HeLa; C. trachomatis total inclusion area by high-content imaging, normalised to DMSO
How it was run: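 High-content imaging followed the bulk GFP/resorufin measurement: fixed, Hoechst-stained cells were scored for GFP inclusions and host nuclei per well. Total inclusion area and count served as growth proxies, nuclei number as the viability proxy. MIC calculation matched the bulk assay.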

| SMILES | % of control remaining |
| --- | --- |
| CCOc1cccc(-c2cncc(N[C@H](C)c3ccccc3)n2)c1 [CBK066042] | 88.5991 |
| CC(Oc1ccc(Cl)cc1Cl)C(=O)Nc1sc2c(c1C(N)=O)CCCCCC2 (centres unmarked) [CBK265394] | 112.293 |
| CCOC(=O)C1CSCCN1C(=O)c1cnn(-c2ccc(Br)cc2)c1C (centres unmarked) [CBK304550] | 33.1306 |
| Cc1noc(C)c1CCC(=O)N1CC[C@H]2NC(=O)COc3ccccc3C/C=C/C[C@H]2C1 [CBK292115] | 99.4951 |
| COc1ccc(NC(=O)C(OC)c2ccccc2)cc1Cl (centres unmarked) [CBK264098] | 109.606 |
| O=C1S/C(=C\c2ccc(O)c([N+](=O)[O-])c2)C(=O)N1Cc1ccc(Cl)cc1 [CBK102929] | 91.0361 |
| Nc1ncc(-c2cccc3cccnc23)nc1NC1CCCCC1 [CBK063613] | 77.7542 |
| Cc1cccc(NC(=S)NCCc2ccc(S(N)(=O)=O)cc2)c1C [CBK264889] | 109.073 |
| O=C(CSCc1ccc([N+](=O)[O-])cc1)Nc1c[nH]c(=O)[nH]c1=O [CBK268549] | 103.61 |
| Cn1nc([N+](=O)[O-])nc1OCc1nc2ccccc2n1C [CBK265247] | 85.7292 |
| COc1cc(-c2nccnc2N[C@@H](CO)C(C)C)cc(OC)c1OC [CBK038023] | 110.556 |
| COc1ccc(C)cc1-n1ccc(C(=O)NCC2(C)CCCS2)n1 (centres unmarked) [CBK305355] | 87.7787 |
| COc1nccnc1N1CCN(Cc2ccccc2)CC1 [CBK084210] | 97.5771 |
| O=C(COc1ccc(Cl)cc1Br)N1CCCCCC1 [CBK058661] | 35.6854 |
| O=C(Nc1cccnc1)c1ccc(NC(=O)C2OCCc3ccccc32)cc1 (centres unmarked) [CBK269963] | 33.3858 |
| O=C(O)c1ccc2c(c1)C(=O)N(c1ccc(-c3ccc(N4C(=O)c5ccc(C(=O)O)cc5C4=O)cc3)cc1)C2=O [CBK261187] | 96.5575 |
| CCC(CNC(=O)c1ccoc1C)N1CCCC1 (centres unmarked) [CBK304798] | 108.873 |
| CC1CCCCN1S(=O)(=O)c1ccc(NC(=O)CCn2cnc3ccccc3c2=O)cc1 (centres unmarked) [CBK268495] | 107.677 |
| CCOC(=O)C(NC(=O)c1cc[nH]n1)c1cccc(C)c1C (centres unmarked) [CBK304131] | 73.604 |
| O=C(NCc1ccccn1)c1cnn2c(C(F)(F)F)cc(-c3cccs3)nc12 [CBK268195] | 105.188 |
| CCOc1cccc(NC(=O)/C(C#N)=C\c2cc(C)n(-c3cccc(C(=O)O)c3)c2C)c1 [CBK263186] | 135.073 |
| COc1ccccc1Cn1nc2nnc(-c3ccc(F)cc3)c(-c3ccc(F)cc3)n2c1=O [CBK286184] | 88.9187 |
| Cn1c2ccccc2c2nnc(SCc3ccc4nonc4c3)nc21 [CBK267515] | 96.1945 |
| Cc1nc2c(c(=O)[nH]1)CC[C@@H]1CN(C(=O)C3CCCCC3)C[C@H]21 [CBK284407] | 76.6053 |
| Nc1ncc(-c2ccc(C(=O)N3CCOCC3)cc2)cc1C(=O)Nc1ccncc1 [CBK160202] | 92.5837 |
| C/C(=N\N1CCN(Cc2cccc3ccccc23)CC1)c1ccncc1 [CBK263574] | 81.0432 |

| SMILES | % of control remaining |
| --- | --- |
| Cc1scnc1CN1CCn2nc(C(O)Cc3ccccc3)cc2C1 (centres unmarked) [CBK307612] | 89.1848 |
| CCN(CC)C(=O)c1cn(CCC#N)nc1-c1cccc(OC)c1 [CBK305941] | 44.4734 |
| CC1CC(=O)c2cn/c(=N\c3ccccc3)[nH]c2C1 (centres unmarked) [CBK287884] | 85.0841 |
| O=C(O)C1C2CC(c3ccccc3)C(C2)C1C(=O)O (centres unmarked) [CBK287147] | 89.7576 |
| COc1ccc([C@@]23CC[C@@H](NC(=O)Nc4ccc(F)c(F)c4)C[C@@H]2N(C)CC3)cc1C#N [CBK067952T] | 62.0788 |
| CCn1c2ccccc2c2cc(/C=N/N3CCN(c4ccccc4OC)CC3)ccc21 [CBK101168] | 101.534 |
| OCc1ccc(CN2Cc3nc[nH]c3C[C@H]2c2nc(Cc3ccccc3)no2)o1 [CBK288955] | 119.097 |
| Cn1nccc1CNc1ncn(CC(=O)N2CCCCCC2)n1 [CBK306454] | 47.8524 |
| CC1(C)Cc2c(ccc3ccccc23)C(CCN2CCCCC2)=N1 [CBK261746] | 69.7983 |
| CCC1CCC2(CC1)NC(=O)N(Cc1cc(-c3ccccc3)on1)C2=O (centres unmarked) [CBK294977] | 48.5935 |
| O=c1[nH]c2cc(Cl)c(Br)nc2[nH]1 [CBK026531] | 45.6863 |
| O=C(NC1CCOCC1)c1n[nH]c2c1CCC2 [CBK174626] | 62.4078 |
| CN(C(=O)CN1CCN(c2cc(-c3cccc([N+](=O)[O-])c3)ncn2)CC1)c1ccccc1 [CBK091137] | 91.2848 |
| CCCS(=O)(=O)N1CCN(C(=O)c2cccnc2)CC1 [CBK264239] | 129.788 |
| O=C(Cn1c(NCCO)nc2ccccc21)c1ccco1 [CBK264127B] | 97.2177 |
| COc1ccccc1C1(O)CCCC2CN(C(C)=O)CC21 (centres unmarked) [CBK283134] | 102.707 |
| COc1ccc(Cl)cc1S(=O)(=O)N1CCCC(C(=O)NCc2ccccn2)C1 (centres unmarked) [CBK269761] | 97.7743 |
| CC(=O)c1c(C)[nH]c(C(=O)N2CCN(C3CCN(C)CC3)CC2)c1C [CBK149098] | 102.477 |
| CCOC(=O)c1cccnc1-c1cncnc1 [CBK149236] | 75.3649 |
| CNC(=O)c1cccnc1N1CCN(CCCC(c2ccc(F)cc2)c2ccc(F)cc2)CC1 [CBK025309C] | 86.5331 |
| CCn1cc(C(=O)N2C[C@H](C(=O)OC)[C@@H](c3ccc(F)cc3)C2)cn1 [CBK283719] | 56.4624 |
| O=C(O)CCc1ccc(-c2cccs2)n1NC(=O)c1sc2ccccc2c1Cl [CBK264782] | 106.896 |
| FC(F)(F)c1ccnc(Sc2cccc(Cl)c2)n1 [CBK115247] | 75.0671 |
| COc1ccccc1N1CCN(/N=C\c2ccccc2OCC(=O)O)CC1 [CBK263173C] | 115.903 |
| CC(=O)Nc1ccc(-c2ccc(C(=O)N3CCC(Sc4ccccc4)CC3)cn2)cc1 [CBK160188] | 78.4394 |
| Cc1c(Cc2ccccc2)c(=O)oc2c(CN3CCCC(C)C3)c(O)ccc12 (centres unmarked) [CBK266995] | 106.233 |

| SMILES | % of control remaining |
| --- | --- |
| c1ccc2c(c1)nnn2CNCn1nnc2ccccc21 [CBK261114] | 103.249 |
| COc1ccc(Cn2nc(-c3nc(C)no3)c3ccccc32)cc1 [CBK105834] | 59.7237 |
| CNC(=O)C1(Cc2ccc(-c3cccc(C)c3)cc2)CCN(C(=O)CC(C)C)CC1 [CBK285787] | 95.7798 |
| Cc1cc(C(F)F)n2nc(C(=O)Nc3cccc(S(=O)(=O)N4CCOCC4)c3)nc2n1 [CBK266198] | 101.307 |
| O=C(c1ccccc1)N1C[C@@H](c2ccsc2)[C@@H]2CN(Cc3ccccc3F)CC[C@@H]21 [CBK285612] | 67.7457 |
| Cc1ccc([C@]2(O)CC[C@H]3CN(Cc4cccc(F)c4F)C[C@H]32)nc1 [CBK283088] | 76.1769 |
| CC(=O)Nc1ccc(S(=O)(=O)N2CCN(c3ccc([N+](=O)[O-])c(NC4C5CC6CC(C5)CC4C6)c3)CC2)cc1 (centres unmarked) [CBK268802] | 89.2246 |
| COc1ccc(S(=O)(=O)N2CCC(C(=O)O)CC2)cc1C(=O)O [CBK092181] | 109.816 |
| CC(=O)N1CCN(c2ccc(Oc3ncc(C(F)(F)F)cc3Cl)cc2)CC1 [CBK161650] | 96.8651 |
| Cc1c(C(N)=O)sc2nc(C(F)(F)F)cc(N)c12 [CBK061693] | 98.0015 |
| Cc1cc(C(=O)N(C)CC2(C)COC2)nc2ccccc12 [CBK281956] | 92.3254 |
| CC(=O)Nc1ccc(NCc2nc(C(C)C)no2)c(C(F)(F)F)c1 [CBK305743] | 45.998 |
| CSCC1CCCN(C(=O)c2cc3ncc(CCO)cn3n2)C1 (centres unmarked) [CBK307256] | 69.8924 |
| COc1ccc(C)c2sc(NC(=O)c3sc(C)nc3C)nc12 [CBK287401] | 108.819 |
| Cn1ncc(Cl)c1C1CCCCCN1C(=O)c1cccnc1 (centres unmarked) [CBK285146] | 132.164 |
| Cc1ccc(C(=O)N(Cc2nc(-c3ccc(Cl)cc3)no2)C(C)C)cc1[N+](=O)[O-] [CBK268422] | 76.6838 |
| Cc1oc2ccc(NS(=O)(=O)c3ccccc3)cc2c1C(=O)O [CBK287071] | 101.602 |
| Cc1[nH]c2c(C)ccc(C)c2c1CC(=O)N1[C@@H](c2ccccc2F)C[C@@H]2NC(=O)CCC[C@H]21 [CBK286011] | 125.638 |
| Brc1ccc(CSc2ncn[nH]2)cc1 [CBK027819] | 100.506 |
| CC(=O)Nc1ccc(CNC(=O)c2cccnc2OCC(F)(F)F)cc1 [CBK305682] | 32.3871 |
| Cc1c(C(=O)NC(=S)Nc2ccc(O)c(-c3nc4ccccc4s3)c2)oc2ccccc12 [CBK264223] | 105.704 |
| COCCN1C(=O)C2(CC(=O)N(CC3CCCCC3)C2=O)c2ccccc21 (centres unmarked) [CBK075355] | 98.8488 |
| Cc1ccc(C(=O)Nc2cccc(-n3c(C)nc4ccccc4c3=O)c2)cc1 [CBK287725] | 107.38 |
| COc1ccc(C(=O)N2CCC3(CCCN(CCCn4c(=O)[nH]c5ccccc54)C3)C2)cc1OC (centres unmarked) [CBK132856] | 96.0523 |
| Clc1ccc(COc2nccnc2OCCOc2ccccc2)cc1Cl [CBK161853] | 82.1113 |
